# Reference: PMC4336329 (PLoS ONE, 2015)
# Among all 310,000 compounds or so, about 2,200 (0.71%) showed an effect of 50% or more. The effect is printed as a negative number. The list shows a part of the results.
# Target: human ether-à-go-go-related gene (hERG) potassium channel (human, UniProt Q12809)
# Assay: primary screen, population patch clamp on CHO cells stably expressing hERG
# Chain of human ether-à-go-go-related gene (hERG) potassium channel (Q12809 whole entry, looked up): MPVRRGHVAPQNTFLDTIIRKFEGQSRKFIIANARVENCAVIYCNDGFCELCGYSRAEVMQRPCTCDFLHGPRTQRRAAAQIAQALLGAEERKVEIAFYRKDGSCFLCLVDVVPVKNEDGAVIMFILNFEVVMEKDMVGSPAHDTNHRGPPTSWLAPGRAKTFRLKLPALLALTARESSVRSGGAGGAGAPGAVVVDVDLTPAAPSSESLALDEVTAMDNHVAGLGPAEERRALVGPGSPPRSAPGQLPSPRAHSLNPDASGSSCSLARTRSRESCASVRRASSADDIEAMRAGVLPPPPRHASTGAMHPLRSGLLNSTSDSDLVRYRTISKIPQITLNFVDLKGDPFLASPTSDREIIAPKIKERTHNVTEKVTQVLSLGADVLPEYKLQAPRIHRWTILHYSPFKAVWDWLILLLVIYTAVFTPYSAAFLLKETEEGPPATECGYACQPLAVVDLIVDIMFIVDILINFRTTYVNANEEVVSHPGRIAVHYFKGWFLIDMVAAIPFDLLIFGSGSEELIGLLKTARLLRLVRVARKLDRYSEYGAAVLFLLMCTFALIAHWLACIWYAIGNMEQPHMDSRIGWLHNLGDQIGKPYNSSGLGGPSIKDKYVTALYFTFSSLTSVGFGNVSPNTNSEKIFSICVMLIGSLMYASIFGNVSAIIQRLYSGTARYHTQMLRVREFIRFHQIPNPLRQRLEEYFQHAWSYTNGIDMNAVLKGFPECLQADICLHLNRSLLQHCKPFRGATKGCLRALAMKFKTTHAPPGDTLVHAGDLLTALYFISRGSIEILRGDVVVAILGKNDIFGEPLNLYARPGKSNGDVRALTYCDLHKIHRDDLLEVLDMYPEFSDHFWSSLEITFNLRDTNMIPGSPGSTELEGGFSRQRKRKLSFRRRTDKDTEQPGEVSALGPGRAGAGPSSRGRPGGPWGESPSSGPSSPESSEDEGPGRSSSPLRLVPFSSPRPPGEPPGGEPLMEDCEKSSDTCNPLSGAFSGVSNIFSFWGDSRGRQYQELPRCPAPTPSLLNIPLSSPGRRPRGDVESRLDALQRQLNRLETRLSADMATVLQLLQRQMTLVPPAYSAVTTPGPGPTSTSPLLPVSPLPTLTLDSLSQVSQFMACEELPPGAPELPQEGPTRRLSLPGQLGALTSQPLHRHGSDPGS
row,SMILES,"hERG current change (%, negative = inhibition) at 1uM [%]"
1,Cc1ccc(C(=O)Nc2ccc(N3CCOCC3)c3nonc23)cc1[N+](=O)[O-],5.68
2,O=C(CSc1n[nH]c(-c2ccccc2)n1)Nc1ncc(Br)cc1Br,5.13
3,Cc1cc(C(=O)N/N=C/c2cc(Br)cc(Br)c2OC(=O)c2cccc(F)c2)n[nH]1,13.3
4,CCOn1c(=O)c(-c2cc3ccccc3o2)[n+]([O-])c2ccccc21,11.2
5,CCc1nn2c(=O)c(S(=O)(=O)Nc3ccccc3)c(C)nc2s1,10.3
6,Clc1nnc(Cl)c2c1ncn2Cc1ccccc1,14.6
7,CCN(C(=O)CSc1nnc(Cn2nnc3ccccc32)o1)c1nc(-c2ccccc2)cs1,2.49
8,CC1OC(Nc2ccc(N=Nc3ccccc3)cc2)C(O)C(O)C1O (stereo not shown),13.4
9,CCC1CCCCN1C(=O)CNCC1CCCO1.Cl (stereo not shown),7.5
10,OCc1ccccc1N=Cc1cccnc1,8.66
11,COc1ccc(/C=C2\CCc3c2nc2ccccc2c3C(=O)O)cc1OC,0.475
12,Cc1ccc(N/C(=C\C(=O)c2ccccc2)C(=O)O)cc1,-6.7
13,Cc1nn(CCOc2ccccc2)c(=O)n1-c1ccc(Cl)cc1,5.93
14,Cc1ccccc1C(=O)NC(=S)NCCN1CCOCC1,9.75
15,CCc1nnc(NC(=O)CSc2nnc(-c3ccncc3)n2C)s1,7.38
16,CC1=C(C(=O)OCc2ccccc2)C(c2ccc(C#N)cc2)NC(=O)N1CCCC(=O)O (stereo not shown),7.56
17,CC(=O)c1c[nH]c(C(=O)Nc2ccc(N3CCCCCC3)cc2)c1,-3.54
18,CCOC(=O)c1cnc(SCC(=O)Nc2nc(C)c(C)s2)nc1N,-15.6
19,COC(=O)C1=C(C)N(C)C(=O)NC1c1cc2c(cc1Br)OCO2 (stereo not shown),11.3
20,COc1ccc(C2(C(=O)NCC3CCCO3)CCOCC2)cc1 (stereo not shown),5.88
21,CCc1ccc(NC(=O)CSc2nnc(CNC(=O)c3ccco3)o2)cc1,9.26
22,O=C1COc2ccc(NC(=O)c3ccccc3C(=O)O)cc2N1,12.6
23,O=C(Cc1ccc([N+](=O)[O-])cc1)OCc1ccc([N+](=O)[O-])cc1,12.5
24,CCOc1ccc(N2C(=O)CC(n3nc(C)cc3C)C2=O)cc1 (stereo not shown),3.53
25,C/C(=N\Nc1nncc2ccccc12)c1ccc(OCC(=O)N(C)C)cc1,12.7
